Laboratory results: PubChem BioAssay AID588855 (National Center for Advancing Translational Sciences (NCATS), 2011)
Screen size: about 410,000 compounds; about 5,000 (1.2%) were called active. Inconclusive means that the source gave no clear call. Such entries were picked first, then a sample of the others. Calls come from the whole dose curve; as a rule, active = well fitted inhibition curve with a large enough effect; inconclusive = small, poorly fitted or top-dose-only effect; inactive = no such curve, though single readings can be large or run the other way. Potencies of inconclusive entries are doubtful fits and often do not repeat.

Test: qHTS for Inhibitors of TGF-b; note: nearly all actives have a fitted effect of over 65% in size
Details: HepG2 CAGA-GFP TGF-b/SMAD3 reporter, GFP fluorescence, 18 h, TGF-beta stimulated, 500 pg/mL final; series mostly up to 46.1 µM
Method in brief: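 Inhibition was scored as loss of TGF-beta-induced (500 pg/mL final, 18 hours, 37 degrees C) GFP in HEPG2 cells carrying a CAGA-GFP reporter, in DMEM with 1% FBS. Well GFP was summed per cell; Activity was normalised to unstimulated and stimulated DMSO wells, then concentration-response fitting.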
Potency is the fitted concentration of half-maximal effect; tags give direction and shape of the fitted curve.

Compound | Potency
CCOc1ccc(NS(=O)(=O)c2cc(NC(=O)c3ccc(C)cc3)ccc2Cl)cc1 | inconclusive: 12.6 µM [inhibitor, single point]
COc1ccc(CCNC(=O)C2CC=CCC2C(=O)O)cc1 (stereo not drawn) | inactive
CN1C(=O)N(CC(=O)N2CCN(S(=O)(=O)c3ccc4c(c3)CCC4)CC2)C(=O)C12CCCCC2 | inconclusive: 6.31 µM [inhibitor, single point]
OCC1(Cc2ccc(F)cc2F)CCCN(CCCc2ccccc2)C1 (stereo not drawn) | inactive
COc1ccc(N(C)S(=O)(=O)c2cccc(C(=O)OCC(=O)c3c(N)n(C)c(=O)n(C)c3=O)c2)cc1 | inconclusive: 28.2 µM [inhibitor, single point]
CCC(=NC(C)c1ccccc1)c1c(O)n(C)c(=O)n(C)c1=O (stereo not drawn) | inactive
Cn1nnc2c(N3CCCCC3)ncnc21 | inactive
CC(=O)Nc1ccc(C2CC(c3ccc(Cl)cc3)=NN2c2ccccc2)cc1 (stereo not drawn) | inactive
O=C1C(Cl)=C(N2CCOCC2)C(=O)N1c1cccc(Cl)c1 | inconclusive: 15.8 µM [inhibitor, single point]
CCc1cccc(C)c1NC(=O)CN1C(=O)c2c(c3ccccc3n2C)C1c1ccc(OC)cc1 (stereo not drawn) | inconclusive: 35.5 µM [inhibitor, partial curve, poor fit]
O=C(NCc1ccccc1)NC12CC3CC(CC(C3)C1)C2 | inactive
O=C(CN(c1ccc(F)cc1)S(=O)(=O)c1ccc2c(c1)OCCO2)NCc1ccccc1 | inconclusive: 1.26 µM [inhibitor, full curve, poor fit]
CCOC(=O)C1(CCc2ccccc2)CCN(Cc2ccn[nH]2)CC1 | inactive
CCOC(=O)c1c(CSc2ccccc2)n(C)c2ccc(O)c(CN3CCN(C)CC3)c12 | inconclusive: 10 µM [inhibitor, partial curve, poor fit]
COc1cccc(Nc2nc(C(N)COCc3ccccc3)cs2)n1 (stereo not drawn) | inconclusive: 35.5 µM [inhibitor, single point]
c1nc(NC2CCCCCC2)c2[nH]cnc2n1 | inactive
O=C(NCCCc1ccccc1)c1ccncc1 | inconclusive: 35.5 µM [inhibitor, single point]
COc1ccc(S(=O)(=O)Nc2ccc3c(c2)CCC3)cc1 | active: 11.2 µM
COc1ccccc1Cc1c(-c2ccco2)nc2ccc(Br)cn12 | inconclusive: 11.2 µM [inhibitor, partial curve, poor fit]
CC1CCCN(S(=O)(=O)c2ccc(C(=O)Nc3sc4c(c3C(N)=O)CCN(C)C4)cc2)C1 (stereo not drawn) | inconclusive: 28.2 µM [inhibitor, single point]
COc1cc2c(cc1OC)CN(C(=O)c1cc3ccccc3oc1=O)CC2 | inconclusive: 17.8 µM [inhibitor, single point]
Cc1ccc(OCC(=O)Nc2oc(-c3ccccc3)c(-c3ccccc3)c2C#N)cc1 | inconclusive: 14.1 µM [inhibitor, partial curve]
COC(=O)C(Cc1ccc(O)cc1)NC(=O)CCOc1ccc(OC)cc1 (stereo not drawn) | inactive

Compound | Potency
COc1ccc(CCNC(=O)CN(c2ccc(OC)c(OC)c2)S(C)(=O)=O)cc1OC | inconclusive: 0.562 µM [inhibitor, full curve, poor fit]
COc1cc(C(=O)OCC(=O)NCc2ccc(F)cc2)ccc1OCC(C)C | inactive
O=C(CSc1nc2ncc(Cl)cc2[nH]1)Nc1cccc(F)c1 | inconclusive: 14.1 µM [inhibitor, single point]
C[C@H](CO)N1C[C@H](C)[C@@H](CN(C)C(=O)Nc2ccc(C(F)(F)F)cc2)Oc2c(NC(=O)NC3CCCCC3)cccc2C1=O | inconclusive: 35.5 µM [inhibitor, single point]
O=C(Cn1nc(C(=O)O)c2ccccc2c1=O)Nc1cccc(S(=O)(=O)N2CCCC2)c1 | inactive
CCOc1ccc(C(=O)Nc2ccc(-c3nc4cc(C(C)C)ccc4o3)cc2)cc1Cl | inconclusive: 22.4 µM [inhibitor, single point]
Cc1ccc(S(=O)(=O)N2CCN(S(=O)(=O)c3ccccc3)C2)cc1 | inactive
Oc1c(Cl)cc(CN2CCOCC2)c2cccnc12 | active: 2.51 µM
CC(C)CCOc1ccc(C(=O)NCCC(=O)N2CCOCC2)cc1 | inconclusive: 22.4 µM [inhibitor, single point]
Cc1c(C#N)c(N)nc2c3c(sc12)NC(=O)CC3c1ccc(Cl)cc1 (stereo not drawn) | inconclusive: 35.5 µM [inhibitor, single point]
CN(C)N=Nc1nc2c([nH]1)c(=O)n(C)c(=O)n2C | inactive
O=C(CCc1nc2cccnc2n1Cc1ccccc1)NCc1cccc(Cl)c1 | inconclusive: 3.98 µM [inhibitor, full curve]
CSc1ccc(CN2CCC(C)(Oc3ccccc3C)C2)cc1 (stereo not drawn) | inconclusive: 11.2 µM [inhibitor, partial curve, poor fit]
O=C(CN1CCOCC1)N/N=C/c1ccc(-c2cccc(Cl)c2Cl)o1 | inconclusive: 35.5 µM [inhibitor, partial curve, poor fit]
OCc1cnc(SCc2cccc(F)c2)n1Cc1ccc(F)cc1 | inconclusive: 35.5 µM [inhibitor, single point]
O=C(Nc1cccc(Cl)c1)c1ccc2nc(Cc3ccccc3)oc2c1 | inconclusive: 35.5 µM [inhibitor, single point]
Cc1ccc(NC(=O)CSc2nn(-c3ccccc3)c(=S)s2)cc1S(=O)(=O)N(C)C | inconclusive: 22.4 µM [inhibitor, partial curve, poor fit]
CCCCCCC(=O)N1C/C=C\C(c2ccc(OC)cc2)N(Cc2ccc(F)cc2)C(=O)[C@H]1Cc1ccccc1 (stereo partly drawn) | inconclusive: 5.01 µM [inhibitor, partial curve, poor fit]
Cc1ccc2c(c1)N(C(=O)N1CCC(C(=O)NCCC3=CCCCC3)CC1)CC(C)O2 (stereo not drawn) | inconclusive: 2.24 µM [inhibitor, full curve]
Cc1c(C(=O)N2CCCC2)oc2c1-c1nn(CC(=O)NCc3cccc(F)c3)cc1CC2 | inconclusive: 20 µM [inhibitor, partial curve, poor fit]
Cn1c(SCC(=O)c2ccc(F)cc2)nc2cccnc21 | inconclusive: 3.98 µM [inhibitor, single point]
FC(F)(F)c1cnc(NNC(=S)Nc2ccccc2Cl)c(Cl)c1 | active: 7.08 µM
CCCCc1ccc(C(=O)Nc2ccc3nc(N(CC)CC)cc(C)c3c2)cc1 | inconclusive: 10 µM [inhibitor, partial curve, poor fit]

Compound | Potency
CCC(C(=O)NCc1ccc(C)cc1)c1ccccc1 (stereo not drawn) | inactive
COc1ccc(CSc2nc3ccccc3c(=O)n2CCCN2CCOCC2)cc1F | inactive
CC(=O)Nc1cc(-c2ccc(C(=O)NC3CC3)cc2)cn2c(-c3cccc(C(C)=O)c3)cnc12 | inactive
CC(=O)Nc1cccc(-c2ccnc3c2CC(C)(C(=O)Nc2ccc(Cl)c(C(F)(F)F)c2)O3)c1 (stereo not drawn) | inconclusive: 25.1 µM [inhibitor, single point]
S=C1NCN(Cc2ccco2)CN1 | inconclusive: 1 µM [inhibitor, partial curve]
CC(C)(C)c1cc(C(=O)CCN2CCOCC2)cc(C(C)(C)C)c1O | inconclusive: 35.5 µM [inhibitor, single point]
Oc1c(Br)cc(Br)cc1CNc1cccc2cccnc12 | inconclusive: 22.4 µM [inhibitor, single point]
Cc1ccccc1CN(C)CC(=O)Nc1ccccc1Oc1ccccc1 | inconclusive: 35.5 µM [inhibitor, single point]
COc1ccc2[nH]cc(C(=O)CNc3nccs3)c2c1 | inactive
Cc1ccc(C)c(N2CCN(C(=O)Cn3nc(Cc4cccnc4)c4ccccc4c3=O)CC2)c1 | inconclusive: 35.5 µM [inhibitor, single point]
C[C@@H]1CC=C[C@H]2[C@H]1C(=O)N(Cc1ccccc1)[C@H]2c1ccc(-c2ccoc2)cc1F | inconclusive: 22.4 µM [inhibitor, single point]
O=S(=O)(c1ccc(Cl)cc1)c1cnc2ccccc2n1 | inconclusive: 35.5 µM [inhibitor, single point]
CCOC(=O)N1CCc2c(sc3c2c(=O)n(-c2ccc(Cl)cc2)c(=O)n3CC(=O)Nc2ccccc2)C1 | inactive
O=C(O)c1ccc(Nc2ccc3nonc3c2[N+](=O)[O-])cc1 | inactive
NC(=O)c1sc2nc(-c3cccnc3)ccc2c1N | inactive
O=C(CSc1nc2cc([N+](=O)[O-])ccc2n1-c1ccc(F)cc1)NC1CCS(=O)(=O)C1 (stereo not drawn) | inactive
Cc1ccc(CNc2nc(-c3cccs3)nc3ccccc23)cc1 | inconclusive: 35.5 µM [inhibitor, single point]
Cc1nc(N2N=C3/C(=C/c4ccc(F)cc4)CCCC3C2c2ccc(F)cc2)sc1C(=O)N(C)C (stereo not drawn) | active: 12.6 µM
O=C(NC(CC(=O)N1CCN(c2ccccc2)CC1)c1ccccc1)c1ccccc1 (stereo not drawn) | inactive
CCc1ccc(NC(=O)C2CCCN(S(=O)(=O)c3ccc4c(c3)CC(C)N4C(C)=O)C2)cc1 (stereo not drawn) | inconclusive: 35.5 µM [inhibitor, single point]
CCN(CC)C(=O)Cn1cc(SCC(=O)Nc2ccc(C)cc2)c2ccccc21 | inconclusive: 2.82 µM [inhibitor, partial curve, poor fit]
CCCCCCCCCCS(=O)(=O)N/N=C/c1ccc([N+](=O)[O-])cc1 | inconclusive: 35.5 µM [inhibitor, single point]
